Data reported in the supplement of paper PMC4604168 (melanoma cell lines).
This is one part of the list. Most values come without repeats; read them as rough.

Key:
Assay in all cases: cell count relative to DMSO control; melanoma cells; higher = more viable cells
Conditions in all cases: library dose: standard library concentration; 72 h
SkMel28 = test system: SkMel28
SkMel2 = test system: SkMel2
SkMel30 = test system: SkMel30
SkMel5 = test system: SkMel5
UACC257 = test system: UACC257
UACC62 = test system: UACC62
WM115 = test system: WM115
WM1716 = test system: WM1716
WM1745 = test system: WM1745
WM3526 = test system: WM3526
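Further: cells treated in 1,536-well plates, then fixed and DAPI-stained, with nuclei counted from automated high-throughput microscope images.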

Row | SMILES | cell count (SkMel28) [%] | cell count (SkMel2) [%] | cell count (SkMel30) [%] | cell count (SkMel5) [%] | cell count (UACC257) [%] | cell count (UACC62) [%] | cell count (WM115) [%] | cell count (WM1716) [%] | cell count (WM1745) [%] | cell count (WM3526) [%]
1 | O=C(O)[C@@H]1[O][Sb](=[O])([O][Sb]2(=[O])[O][C@H]([C@H](O)CO)[C@H](O)[C@H](C(=O)O)[O]2)[O][C@H]([C@H](O)CO)[C@@H]1O (stereo not given in full) [stibogluconate] + Cn1nnc2c(C(N)=O)ncn2c1=O [temozolomide] (first compound 10 µM, partner dose 10 µM) | 29.3 | 79.1 | 60.7 | 107 | 118 | 58.3 | 94.6 | 51.5 | 82.3 | 89.1
2 | Cn1nnc2c(C(N)=O)ncn2c1=O [temozolomide] + O=c1cc(-c2cccc3c2Sc2ccccc2S3)oc(N2CCOCC2)c1 [KU55933] (first compound 10 µM, partner dose 5 µM) | 45.8 | 78.3 | 57.2 | 96.7 | 105 | 52.2 | 90.3 | 61.7 | 97.6 | 70.3
3 | O=C(Nc1ccccc1)c1cc([N+](=O)[O-])ccc1Cl + COc1cc2ncnc(Nc3ccc(Oc4ccccc4)cc3)c2cc1OC [SrcI1] (first compound 10 µM, partner dose 10 µM) | 80.3 | 94.8 | 83.9 | 53.9 | 79.5 | 72.5 | 52 | 79.5 | 48.9 | 58.3
4 | O=C(O)c1ccc2c(c1)nc(Nc1cccc(Cl)c1)c1ccncc12 + Clc1ccc(Nc2nnc(Cc3ccncc3)c3ccccc23)cc1 [vatalanib] (first compound 2 µM, partner dose 10 µM) | 89.4 | 112 | 111 | 74.6 | 74.3 | 91.2 | 108 | 96.5 | 77.4 | 86.2
5 | O=C(Nc1cc(C(F)(F)F)cc(C(F)(F)F)c1)c1cc(Cl)ccc1O + C[C@]1(O)C[C@@H](c2nc(-c3ccc4ccc(-c5ccccc5)nc4c3)c3c(N)nccn32)C1 [OSI906] (first compound 0.08 µM, partner dose 2 µM) | 88.6 | 73.6 | 93.5 | 81.6 | 93.6 | 68.4 | 98.2 | 80.7 | 92.3 | 81
6 | O=C(Nc1ccccc1)c1cc([N+](=O)[O-])ccc1Cl + COc1ccc(COc2ccc(Cc3cnc(N)nc3N)cc2OC)cc1 [GW2580] (first compound 10 µM, partner dose 5 µM) | 75.6 | 91.3 | 81.6 | 55.4 | 77.8 | 105 | 65.9 | 79.2 | 71.6 | 91.3
7 | O=C(Nc1cc(C(F)(F)F)cc(C(F)(F)F)c1)c1cc(Cl)ccc1O + C[C@@H]1CCN(C(=O)CC#N)C[C@@H]1N(C)c1ncnc2[nH]ccc12 [CP690550] (first compound 0.08 µM, partner dose 5 µM) | 94.8 | 80.2 | 104 | 79.2 | 85.5 | 84.9 | 75.6 | 105 | 92.7 | 100
8 | Cn1nnc2c(C(N)=O)ncn2c1=O [temozolomide] + CC(C)(C)c1cnc(CSc2cnc(NC(=O)C3CCNCC3)s2)o1 [SNS-032] (first compound 10 µM, partner dose 0.05 µM) | 36.7 | 92.5 | 91.8 | 75.5 | 114 | 64.7 | 120 | 62.5 | 72.2 | 91.4
9 | O=C(O)c1ccc2c(c1)nc(Nc1cccc(Cl)c1)c1ccncc12 + COc1ccc(Cl)c(Nc2nc3ccccc3nc2NS(=O)(=O)c2cccc(NC(=O)C(C)(C)N)c2)c1 [XL147] (first compound 2 µM, partner dose 4 µM) | 74.4 | 75.9 | 69.6 | 86.8 | 85 | 86.1 | 86.3 | 110 | 69.5 | 65.9
10 | O=C(O)[C@@H]1[O][Sb](=[O])([O][Sb]2(=[O])[O][C@H]([C@H](O)CO)[C@H](O)[C@H](C(=O)O)[O]2)[O][C@H]([C@H](O)CO)[C@@H]1O (stereo not given in full) [stibogluconate] + C=CCn1c(=O)c2cnc(Nc3ccc(N4CCN(C)CC4)cc3)nc2n1-c1cccc(C(C)(C)O)n1 [MK1775] (first compound 10 µM, partner dose 0.1 µM) | 34.4 | 75.4 | 89.6 | 41.9 | 82.4 | 61.7 | 67.5 | 84.9 | 36.4 | 65.6
11 | Cn1nnc2c(C(N)=O)ncn2c1=O [temozolomide] + Oc1nc(-c2ccc(C(F)(F)F)cc2)nc2c1CSCC2 [XAV939] (first compound 10 µM, partner dose 10 µM) | 38.7 | 109 | 75.1 | 80.5 | 85.2 | 78.9 | 58.8 | 50.6 | 72.2 | 98.9
12 | Cc1cc(N2CCOCC2)cc2[nH]c(-c3c(NC[C@@H](O)c4cccc(Cl)c4)cc[nH]c3=O)nc12 + O=c1cc(-c2cccc3c2Sc2ccccc2S3)oc(N2CCOCC2)c1 [KU55933] (first compound 1 µM, partner dose 5 µM) | 44.6 | 65.6 | 87.6 | 86.9 | 93.8 | 99.2 | 78.1 | 84.9 | 54.1 | 62.1
13 | O=C(O)[C@@H]1[O][Sb](=[O])([O][Sb]2(=[O])[O][C@H]([C@H](O)CO)[C@H](O)[C@H](C(=O)O)[O]2)[O][C@H]([C@H](O)CO)[C@@H]1O (stereo not given in full) [stibogluconate] + CC1(C)NC(=O)N(c2ccc([N+](=O)[O-])c(C(F)(F)F)c2)C1=O [nilutamide] (first compound 10 µM, partner dose 5 µM) | 103 | 99.7 | 120 | 122 | 95 | 96 | 123 | 108 | 120 | 87.3
14 | O=C(Nc1cc(C(F)(F)F)cc(C(F)(F)F)c1)c1cc(Cl)ccc1O + Cc1cc(Nc2cc(N3CCN(C)CC3)nc(/C=C/c3ccccc3)n2)n[nH]1 [ENMD2076] (first compound 0.08 µM, partner dose 0.2 µM) | 54.3 | 82.9 | 105 | 71.7 | 87.4 | 78.7 | 63.1 | 92.4 | 101 | 86.8
15 | O=C(Nc1cc(C(F)(F)F)cc(C(F)(F)F)c1)c1cc(Cl)ccc1O + CNC(=O)c1cc(Oc2ccc(NC(=O)Nc3ccc(Cl)c(C(F)(F)F)c3)cc2)ccn1 [sorafenib] (first compound 0.08 µM, partner dose 2 µM) | 108 | 81.1 | 97.4 | 67.8 | 81.3 | 110 | 82.6 | 91 | 93.1 | 69.4
16 | Cn1nnc2c(C(N)=O)ncn2c1=O [temozolomide] + Cc1cc(N2CCOCC2)cc2[nH]c(-c3c(NC[C@@H](O)c4cccc(Cl)c4)cc[nH]c3=O)nc12 [BMS536924] (first compound 10 µM, partner dose 1 µM) | 60.1 | 87.5 | 62.7 | 72.4 | 105 | 68 | 102 | 69.6 | 56.2 | 91.3
17 | O=C(Nc1cc(C(F)(F)F)cc(C(F)(F)F)c1)c1cc(Cl)ccc1O + Cn1c(=O)n(-c2ccc(C(C)(C)C#N)cc2)c2c3cc(-c4cnc5ccccc5c4)ccc3ncc21 [NVP-BEZ235] (first compound 0.08 µM, partner dose 0.02 µM) | 65 | 71 | 95.4 | 81.2 | 87.4 | 64.7 | 76.8 | 67.6 | 75.3 | 73.9
18 | Cn1nnc2c(C(N)=O)ncn2c1=O [temozolomide] + O=C1NC(=O)/C(=C/c2ccc(-c3ccc(F)cc3O)o2)S1 [AS252424] (first compound 10 µM, partner dose 5 µM) | 35.1 | 92.7 | 73.2 | 87.5 | 107 | 63.6 | 83.4 | 51.3 | 87.9 | 82.6
19 | O=C(O)[C@@H]1[O][Sb](=[O])([O][Sb]2(=[O])[O][C@H]([C@H](O)CO)[C@H](O)[C@H](C(=O)O)[O]2)[O][C@H]([C@H](O)CO)[C@@H]1O (stereo not given in full) [stibogluconate] + CC(=O)c1c(C)c2cnc(Nc3ccc(N4CCNCC4)cn3)nc2n(C2CCCC2)c1=O [palbociclib] (first compound 10 µM, partner dose 0.2 µM) | 35.6 | 57.4 | 64.4 | 54.9 | 85.5 | 59.3 | 46.3 | 39.2 | 67.7 | 54.2
20 | Cn1nnc2c(C(N)=O)ncn2c1=O [temozolomide] + CCN(CC)CCCCNc1ncc2cc(-c3cc(OC)cc(OC)c3)c(NC(=O)NC(C)(C)C)nc2n1 [PD173074] (first compound 10 µM, partner dose 0.5 µM) | 50.6 | 103 | 82.6 | 107 | 120 | 84.2 | 96.1 | 73.6 | 73.4 | 106
21 | O=C(Nc1cc(C(F)(F)F)cc(C(F)(F)F)c1)c1cc(Cl)ccc1O + O=C(O)c1ccc(-c2c[nH]c3ncc(-c4ccccc4)cc23)cc1C1CCCC1 [GSK650394] (first compound 0.08 µM, partner dose 0.8 µM) | 52.2 | 66.1 | 76 | 80.4 | 62.8 | 103 | 93.2 | 74.1 | 85 | 85.2
22 | Cc1cc(N2CCOCC2)cc2[nH]c(-c3c(NC[C@@H](O)c4cccc(Cl)c4)cc[nH]c3=O)nc12 + Cc1cc([N+](=O)[O-])ccc1NS(=O)(=O)c1cc(Cl)ccc1Cl [FH535] (first compound 1 µM, partner dose 5 µM) | 54.2 | 73.4 | 83.9 | 46.2 | 63.1 | 79.5 | 72.8 | 83.7 | 55.7 | 66
